# Data reported in PubChem BioAssay AID1476 (National Center for Advancing Translational Sciences (NCATS), 2009).
# The whole screen tested about 200,000 compounds, of which about 4,500 (2.2%) were called active. Inconclusive means that the source gave no clear call. Such entries were picked first, then a sample of the others. Calls follow the shape of the dose curve; as a rule, active = well fitted inhibition curve with a large enough effect; inconclusive = small, poorly fitted or top-dose-only effect, or effect the other way; inactive = flat fitted curve, though single readings scatter. Where the call is inconclusive, the potency comes from a doubtful curve fit.
# Molecular target: Cruzipain (Trypanosoma cruzi) (UniProt P25779)
# Assay: qHTS Assay for Promiscuous and Specific Inhibitors of Cruzain (without detergent); also: nearly all actives have a fitted effect of over 40% in size;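 as to max response, negative = inhibition: plate controls were enzyme without inhibitor for no effect and buffer without enzyme for full effect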
# Details: purified cruzain, Z-FR-AMC fluorescence, no detergent
# In short: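 Purified cruzain at 1.5 nM, pre-incubated 15 min with compound at room temperature in 100 mM sodium acetate pH 5.5, 5 mM DTT, 0.00005% Triton X-100. Reaction started with 2 uM Z-FR-AMC; AMC fluorescence increase over 60 s gives rate.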
# Potency is read from the fitted curve at half-maximal effect; tags tell the direction and shape of the fitted curve.
# Chain of UniProt P25779 (P25779 whole entry, looked up): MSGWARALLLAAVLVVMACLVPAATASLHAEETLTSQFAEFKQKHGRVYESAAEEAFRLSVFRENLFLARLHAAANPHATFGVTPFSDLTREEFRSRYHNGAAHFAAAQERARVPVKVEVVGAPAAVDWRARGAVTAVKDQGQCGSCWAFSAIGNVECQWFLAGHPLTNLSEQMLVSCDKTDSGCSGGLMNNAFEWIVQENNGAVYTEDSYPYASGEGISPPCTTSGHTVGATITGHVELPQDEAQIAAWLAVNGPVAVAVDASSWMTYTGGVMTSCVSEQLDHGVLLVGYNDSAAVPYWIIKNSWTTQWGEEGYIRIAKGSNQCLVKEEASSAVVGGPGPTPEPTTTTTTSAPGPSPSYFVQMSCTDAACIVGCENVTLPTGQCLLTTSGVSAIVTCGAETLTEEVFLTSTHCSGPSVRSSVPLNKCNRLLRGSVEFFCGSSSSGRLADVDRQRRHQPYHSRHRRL
Compound,Potency,"max response, negative = inhibition"
CC(C)c1ccc(NC(=O)C2CCCN(S(=O)(=O)c3cccc4nsnc34)C2)cc1 (centres undefined),"inconclusive: 31.6 µM [inhibitor, single point]",
CCOC(=O)N1CCN(C(=O)/C(=C/c2cccc3ccccc23)NC(=O)c2ccc(OC)cc2)CC1,"inconclusive: 39.8 µM [activator, single point]",
Cc1ccc(C2Oc3ccccc3C3=C2C(c2cccs2)n2ncnc2N3)cc1 (centres undefined),"inconclusive: 31.6 µM [inhibitor, single point]",
CC(CCc1ccccc1)NC(=O)Cn1c(=O)nc(-c2ccccc2F)c2cc(Cl)ccc21 (centres undefined),,inactive: 4.1%
Cc1ccc(NC(=O)O[C@@H]2C(=O)c3cc(Br)ccc3O[C@H]2c2ccc3c(c2)OCO3)cc1Br,"inconclusive: 39.8 µM [inhibitor, single point]",
O=C(CCN1C(=O)S/C(=C\c2cccs2)C1=O)NC1=NCCS1,"inconclusive: 20 µM [inhibitor, single point]",
CCN(CC)c1ccc(/C=N/NC(=O)c2cccc(S(=O)(=O)Nc3ccccc3OC)c2)c(O)c1,active: 20 µM,
O=C(C[n+]1ccc2ccccc2c1)c1ccc2ccc3ccccc3c2c1,active: 3.16 µM,
CCOc1ncccc1C(=O)OCC(=O)Nc1ccc(S(=O)(=O)N2CCOCC2)cc1,,inactive: 13.3%
COc1ccccc1N1CCN(C(=O)CCc2ccc(S(=O)(=O)NCC(C)C)cc2)CC1,"inconclusive: 25.1 µM [activator, single point]",
O=C(NCc1ccc(F)cc1)c1ccc(CS(=O)Cc2ccc(Cl)cc2)o1 (centres undefined),,inactive: 22.9%
CCOC(=O)N1CC=C2C(C#N)=C(N)C(C#N)(C#N)[C@H](c3ccc(OCC)c(OCC)c3)[C@H]2C1,"inconclusive: 39.8 µM [activator, single point]",
Cc1cc(/C=C(\C#N)C(=O)Nc2ccccc2)c(C)n1-c1ccc2c(c1)OCO2,"inconclusive: 39.8 µM [inhibitor, single point]",
COc1cc(/C=C(/C(=O)c2cccs2)c2nc3ccccc3[nH]2)cc(OC)c1O,"inconclusive: 39.8 µM [activator, single point]",
Cc1ccc2c(c1)C(c1ccccc1)N(C(=O)c1ccc(S(=O)(=O)N3CCCCC3)cc1)CC(=O)N2 (centres undefined),,inactive: -7.81%
O=C(CSc1nc2ccccc2o1)Nc1nc(-c2ccccc2)c(-c2ccccc2)s1,active: 12.6 µM,
CSc1nc(Nc2ccc(C)cc2)c(C#N)c(-c2ccccc2)n1,,inactive: -8.08%
Cc1ccccc1NS(=O)(=O)c1cc(C(=O)Nc2ccccc2-c2ccccc2)ccc1Cl,"inconclusive: 25.1 µM [inhibitor, single point]",
CCOC(=O)c1c(C)[nH]c(C(=O)COC(=O)C2CC(=O)N(Cc3ccccc3)C2)c1C (centres undefined),"inconclusive: 31.6 µM [activator, single point]",
O=C(N/N=C/c1cccs1)c1cccc(NC(=O)c2ccc(Cl)cc2)c1,"inconclusive: 39.8 µM [inhibitor, single point]",
O=C(CSc1nc2c(cnn2-c2ccc(F)cc2)c(=O)[nH]1)Nc1nccs1,"inconclusive: 39.8 µM [inhibitor, single point]",
O=C(CCSc1nc(-c2ccco2)cc(C(F)(F)F)n1)N1CCCc2ccccc21,"inconclusive: 20 µM [activator, single point]",

Compound,Potency,"max response, negative = inhibition"
Cc1ccc(-c2nc3cc(NS(=O)(=O)c4ccc(C)cc4)ccc3o2)cc1,"inconclusive: 31.6 µM [inhibitor, single point]",
CCOC(=O)C1=C(O)/C(=C/c2ccc(-c3ccccc3C(=O)O)o2)SC1=Nc1ccc(OC)cc1,"inconclusive: 10 µM [activator, partial curve]",
CCOc1cc(NC(=S)NCc2ccco2)c(OCC)cc1NC(=O)CC(C)C,"inconclusive: 31.6 µM [inhibitor, single point]",
Cc1sc2ncn(CC(=O)N3CCN(c4ccccc4)CC3)c(=O)c2c1S(=O)(=O)N1CCN(c2ncccn2)CC1,,inactive: 14.1%
CCc1cccc(-n2nnc(-c3nsc(NC(=O)c4ccc(C)cc4)n3)c2C)c1,"inconclusive: 31.6 µM [inhibitor, single point]",
COc1ccc(-c2csc(N3CCN(Cc4ccc5c(c4)OCO5)CC3)n2)cc1,"inconclusive: 31.6 µM [inhibitor, single point]",
CCc1ccc(C(c2ccccc2)c2c[nH]c3ccc(C)cc23)s1 (centres undefined),,inactive: -14%
CCOC(=O)Cc1ccc(NC(=O)N2CCc3c(sc4c3CCCC4)C2c2ccc(F)cc2)cc1 (centres undefined),"inconclusive: 39.8 µM [inhibitor, single point]",
O=C(O)CS(=O)(=O)C(c1ccccc1)c1ccccc1,,inactive: -6.25%
CCOc1ccc(N2CCCn3c2nc2c3c(=O)n(CCc3ccccc3)c(=O)n2C)cc1,"inconclusive: 39.8 µM [activator, single point]",
Clc1ccccc1CSc1nnc(-c2ccco2)c(-c2ccco2)n1,active: 15.8 µM,
CCOc1ccc(Nc2nc(C)c(NC(=O)c3ccc(C)cc3)c(Nc3ccc(OCC)cc3)n2)cc1,"inconclusive: 6.31 µM [activator, single point]",
O=C(COC(=O)c1ccc(-c2ccc([N+](=O)[O-])cc2)o1)NC(=O)NC12CC3CC(CC(C3)C1)C2,active: 25.1 µM,
O=C(Nc1nc(-c2ccc3c(c2)OCO3)cs1)C1COc2ccccc2O1 (centres undefined),"inconclusive: 31.6 µM [inhibitor, single point]",
CCN1CCN(c2ncc3c(n2)CCN(Cc2sccc2C)C3)CC1,,inactive: 2.09%
CC(C)n1c(SCC(=O)Nc2ccccc2N2CCOCC2)nc2c1c(=O)n(C)c(=O)n2C,"inconclusive: 31.6 µM [activator, single point]",
Cc1ccccc1NC(=O)C(=O)NCC1(c2ccccc2)CCCC1,,inactive: -0.199%
N#CC1=C(SCC(=O)c2ccc(Br)cc2)NC2=C(C(=O)CCC2)C1c1ccco1 (centres undefined),"inconclusive: 31.6 µM [inhibitor, single point]",
COc1cc2cc(CN(Cc3cccs3)C(=S)Nc3ccccc3)c(=O)[nH]c2cc1OC,"inconclusive: 25.1 µM [activator, single point]",
CCOc1ccc2nc(NC(=O)CSc3ccc(Cl)cc3)sc2c1,"inconclusive: 39.8 µM [inhibitor, single point]",
CC(Oc1ccc(O)cc1)(P(=O)(O)O)P(=O)(O)O,,inactive: 2.77%
O=C(c1ccccc1)c1ccc(OCCCN2CCCCC2)cc1,,inactive: 6.84%

Compound,Potency,"max response, negative = inhibition"
CC(=O)N1CCCc2cc(S(=O)(=O)N3CCCC(C(=O)Nc4ccc(C)c(F)c4)C3)ccc21 (centres undefined),"inconclusive: 39.8 µM [activator, single point]",
CCCCN(C)C(=O)C1CCC(=O)N(c2cc(OC)c(OC)c(OC)c2)C1c1ccc(OC)cc1 (centres undefined),"inconclusive: 25.1 µM [activator, partial curve]",
COc1ccc(C(=O)N(Cc2nc(-c3ccc(C)cc3)no2)C2CCCCC2)cc1OC,"inconclusive: 31.6 µM [activator, single point]",
O=C1CC(c2ccc(Br)cc2)c2c(ccc3ccccc23)N1 (centres undefined),"inconclusive: 39.8 µM [inhibitor, single point]",
CSc1nnc(CSCc2ccc(Cl)cc2Cl)n1-c1ccccc1,"inconclusive: 39.8 µM [activator, single point]",
C[C@]12CCC(=O)C=C1CCC1C2C(=O)C[C@]2(C)C1CC[C@]2(O)C(=O)CO (some centres undefined),,inactive: -3.03%
CCOc1ccc(NC(=O)Cn2c(=O)n(-c3ccccc3)c(=O)c3c4c(sc32)CCCC4)cc1,,inactive: -0.766%
CCCOc1c(Cl)cc(C(=O)Nc2ccc3c(c2)OCO3)cc1OCC,,inactive: -15.7%
CCc1ccc(S(=O)(=O)c2cn(Cc3ccc(OC)cc3)c3cc(OC)c(OC)cc3c2=O)cc1,,inactive: 21.6%
O=C(COc1ccc(Br)cc1)Nc1ccc(C(=O)OC2CCCCC2)cc1,,inactive: 9.38%
O=C1OCCN1C(=O)[C@H]1[C@H](c2ccc(F)cc2)C(c2cccc(Cl)c2)=NN1c1ccc(Br)cc1,active: 15.8 µM,
O=C(Nc1ccc(Cl)cc1)OCCn1nnnc1C(c1ccccc1Cl)N1CCOCC1 (centres undefined),"inconclusive: 39.8 µM [activator, single point]",
Cc1cc(C)c(NC(=O)C2CCCN(C(=O)c3cnn(-c4ccccc4)c3-n3cccc3)C2)c(C)c1 (centres undefined),"inconclusive: 39.8 µM [activator, single point]",
CCc1ccccc1NC(=O)c1ccc2c(c1)c(C)c(C)n2Cc1ccccc1,"inconclusive: 31.6 µM [inhibitor, single point]",
CC(=O)Nc1ccc2nc(SCCOc3ccccc3Cl)sc2c1,"inconclusive: 39.8 µM [activator, single point]",
Oc1ccc2ccccc2c1/C=N/Nc1ccccc1,,inactive: -7.38%
O=C(Cn1c(=O)c2c(ncn2Cc2ccccc2)n(Cc2ccccc2)c1=O)N1CCCC1,"inconclusive: 39.8 µM [activator, single point]",
CC(C)Nc1nnc(SCC(=O)Nc2ccc3c(c2)C(=O)c2ccccc2C3=O)s1,"inconclusive: 31.6 µM [inhibitor, single point]",
COc1cc(NC(=O)c2ccc(Cl)cc2Cl)ccc1-c1cc2ccccc2oc1=O,active: 20 µM,
C=C(CC1([C@@H](NP(=O)(c2ccccc2)c2ccccc2)[C@H]2C[C@@H]2CCN(C(=O)OCC)S(=O)(=O)c2ccc(C)cc2)CC1)c1ccccc1,,inactive: -28.3%
